Measurements as given in PubChem BioAssay AID624418 (National Center for Advancing Translational Sciences (NCATS), 2012).
About 530 (0.13%) of roughly 410,000 compounds were called active. Inconclusive results, whose numbers are uncertain, are shown with a selection of clear calls. Calls come from the whole dose curve; as a rule, active = well fitted inhibition curve with a large enough effect; inconclusive = small, poorly fitted or top-dose-only effect, or another doubt; inactive = no such curve, though single readings can be large or run the other way. A potency beside an inconclusive call is a rough fit, not a confirmed value.

Assay: qHTS of GLP-1 Receptor Inverse Agonists: Cytotox Screen
Conditions: HEK293 cAMP-luciferase reporter cells, luminescence, 24 h; activity change, negative = inhibition: at 38.3 µM (top of the series) unless noted
Summary of the method: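 1536-well qHTS counterscreen of the MLSMR; 200 cells/uL, 12 h pre-incubation, 23 nL cpd, 24 h at 37 deg C 5% CO2, luciferase detection reagent, 12 min RT, luminescence. Inhibition = undesired.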
% is set by controls: 0 for no effect and ±100 for the full control effect; potency is the fitted concentration of half-maximal effect.

| SMILES | Potency | activity change, negative = inhibition |
| --- | --- | --- |
| C/C(=N\NC(=O)CSc1nc(C)[nH]c1[N+](=O)[O-])c1ccc(F)cc1 | inconclusive: 31.6 µM [inhibitor, single point] | – |
| CN(c1ccc(OCC(=O)N2CCN(c3ccc(F)cc3)CC2)cc1)S(=O)(=O)c1cccs1 | inactive | – |
| N#Cc1c(Cl)cccc1Oc1ccc(S(=O)(=O)Nc2ccccc2)cc1 | inconclusive: 4.47 µM [inhibitor, full curve, poor fit] | – |
| Cc1ccc(/C=N/NC(=O)c2cc(-c3ccc(C)o3)[nH]n2)cc1 | inconclusive: 7.08 µM [inhibitor, partial curve, poor fit] | – |
| COCc1cc(=O)[nH]c(Nc2nc3ccccc3o2)n1 | inconclusive: 11.2 µM [inhibitor, partial curve, poor fit] | – |
| CCC(Oc1ccccc1)C(=O)Nc1nnc(S(=O)(=O)N2CCCC2)s1 (centres undefined) | inconclusive: 1.78 µM [inhibitor, partial curve, poor fit] | – |
| COc1ccc(NC(=S)Nc2cccc(C)n2)cc1 | inconclusive: 3.55 µM [inhibitor, full curve] | – |
| O=C(Oc1c(CN2CCOCC2)cc(Cl)c2cccnc12)c1ccccc1Cl | inconclusive: 0.501 µM [inhibitor, full curve, poor fit] | – |
| CN(C)c1oc(-c2ccc(OCc3ccc(Cl)cc3)cc2)nc1C#N | inactive | – |
| Cc1cccc(CC2S/C(=N/N=C/c3ccco3)N(c3ccccc3)C2=O)c1 (centres undefined) | inconclusive: 31.6 µM [inhibitor, single point] | – |
| Cc1cnn(-c2nc(-c3ccccc3)cc(-c3ccccc3)n2)c1 | inconclusive: 14.1 µM [inhibitor, single point] | – |
| CN1CCC(N(C)C(=O)c2cc(S(=O)(=O)N(C)c3ccccc3)ccc2Cl)CC1 | inactive | – |
| CS(=O)(=O)N1CC2CCCN2c2cc(C(F)(F)F)ccc21 (centres undefined) | inactive | – |
| CCC1=Nc2cc(C(=O)NC3CCCC3)ccc2Sc2ccc(Cl)cc21 | inconclusive: 1 µM [inhibitor, full curve, poor fit] | – |
| O=C(c1cccnc1)N1N=C(C2CC2)CC1(O)C(F)(F)F (centres undefined) | inconclusive: 7.08 µM [inhibitor, partial curve, poor fit] | – |
| O=C(CSc1nnc(CNC(=O)c2cccc(C(F)(F)F)c2)o1)NC1CCCCC1 | inactive | – |
| CC1CCN(S(=O)(=O)c2ccc(C(=O)NCc3cccnc3)cc2)CC1 | – | inactive: -0.703% [at 0.307 µM] |
| Cc1cccc(Nc2n[nH]c(=S)s2)c1C | inactive | – |
| O=C1/C(=C/c2cccc(F)c2)SC(=S)N1NS(=O)(=O)c1ccccc1 | inconclusive: 10 µM [inhibitor, single point] | – |
| Cc1cc(C)nc(Sc2ccc([N+](=O)[O-])cc2[N+](=O)[O-])n1 | inconclusive: 1.41 µM [inhibitor, full curve, poor fit] | – |
| CCCCc1cc(=O)oc2cc(O)cc(O)c12 | inactive | – |
| COc1ccc(C(=O)NC(=S)Nc2cccnc2)cc1[N+](=O)[O-] | inactive | – |
| O=C(CNc1cccc(S(=O)(=O)N2CCCCC2)c1)Nc1ccc(C(F)(F)F)cc1 | inactive | – |

| SMILES | Potency | activity change, negative = inhibition |
| --- | --- | --- |
| CC(=O)Nc1ccc(OCC(O)CN2CCN(c3cccc(Cl)c3)CC2)cc1 (centres undefined) | inconclusive: 0.501 µM [inhibitor, full curve, poor fit] | – |
| CC(=O)OC1CCC2(C)C(COc3ccc4ccc(=O)oc4c3)C(C)(O)CCC2C1(C)C (centres undefined) | inactive | – |
| CCCN1CCN(CCCNC(=O)c2cc3c(=O)[nH]c4ccccc4c3s2)CC1 | inconclusive: 11.2 µM [inhibitor, single point] | – |
| OC(CNC1CCCCC1)CON=C1CCSc2c(Cl)cccc21 (centres undefined) | inconclusive: 28.2 µM [inhibitor, single point] | – |
| CCc1ccc(S(=O)(=O)/N=C2\C=C(Nc3ccc(O)cc3)C(=O)c3ccccc32)cc1 | inconclusive: 10 µM [inhibitor, partial curve, poor fit] | – |
| C(=NN=C(NN=Cc1cccs1)NN=Cc1cccs1)c1cccs1 | inconclusive: 12.6 µM [inhibitor, single point] | – |
| Cc1cccc(-c2cc(C(=O)Nc3c(C)n(C)n(-c4ccccc4)c3=O)c3ccccc3n2)c1 | inconclusive: 12.6 µM [inhibitor, single point] | – |
| NC(=S)N/N=C1/CCSc2ccc3ccccc3c21 | active: 2 µM | – |
| CCN(CC)c1ccc(NC(=O)CCS(=O)(=O)c2cccc3nsnc23)c(C)c1 | inactive | – |
| COc1ccccc1NC(=O)c1ccc(NC(=O)c2nc3nccc(C)n3n2)cc1 | inconclusive: 0.501 µM [inhibitor, full curve, poor fit] | – |
| Fc1ccccc1/C=N/Nc1ncnc2ccccc12 | inconclusive: 2.82 µM [inhibitor, partial curve, poor fit] | – |
| Cc1cc(Cl)ccc1NC(=S)NCCc1ccc(Cl)cc1 | inconclusive: 4.47 µM [inhibitor, partial curve] | – |
| CCOC(=O)c1ccc(NC(=S)Nc2cccc(C)n2)cc1 | active: 1.26 µM | – |
| CC(=O)Nc1cccc(Oc2cc(C#N)c(C#N)cc2N2CCCCCC2)c1 | inconclusive: 3.98 µM [inhibitor, partial curve, poor fit] | – |
| Cc1cc(C)c2c(=O)n(CC(=O)Nc3ccc(Cl)cc3)sc2n1 | inactive | – |
| O=C(COC(=O)c1cc([N+](=O)[O-])ccc1N1CCOCC1)c1ccc(Br)cc1 | inconclusive: 11.2 µM [inhibitor, single point] | – |
| CC1(C)Cc2nc3sc4c(SCC(=O)NC(c5ccccc5)c5ccccc5)ncnc4c3cc2CO1 | inconclusive: 28.2 µM [inhibitor, single point] | – |
| CC1CC(C)CN(C(=O)c2ccc3c(c2NCCO)C(=O)c2ccccc2C3=O)C1 (centres undefined) | inconclusive: 12.6 µM [inhibitor, partial curve, poor fit] | – |
| COc1cccc(CNC(=O)C(=O)NCC(c2cccs2)S(=O)(=O)c2cccs2)c1 (centres undefined) | inactive | – |
| Cc1nc(C(=O)Nc2ccccc2)sc1C(=O)Nc1ccccc1 | inactive | – |
| Cc1cccc(NC(=S)NC2CCSc3ccccc32)c1 (centres undefined) | inconclusive: 28.2 µM [inhibitor, single point] | – |
| CCCN(Cc1ccccc1)C(=S)Nc1ccc(SC(F)F)cc1 | inconclusive: 28.2 µM [inhibitor, single point] | – |
| N/C(=N\OC(=O)Cc1cccc2ccccc12)c1ccccn1 | inconclusive: 12.6 µM [inhibitor, single point] | – |

| SMILES | Potency | activity change, negative = inhibition |
| --- | --- | --- |
| Cc1cc(N2CCN(C)CC2)nc2ccc(NC(=O)CCC(=O)N3CCN(c4ccc([N+](=O)[O-])cc4)CC3)cc12 | inconclusive: 11.2 µM [inhibitor, partial curve, poor fit] | – |
| COc1cc(Cn2c3ccc(NC(=O)NCc4ccc(F)cc4)cc3c(=O)n2C)ccc1F | inconclusive: 10 µM [inhibitor, partial curve, poor fit] | – |
| CCN(CC)CC(=O)NC12CC3CC(CC(C3)C1)C2 | inactive | – |
| Cc1ccc(NC(=O)CCN2CCN(C/C=C/c3ccccc3)CC2)cc1 | inconclusive: 10 µM [inhibitor, partial curve] | – |
| CC1=NN(C(=O)Cc2ccccc2)C(O)(c2ccccc2)C1 (centres undefined) | inconclusive: 28.2 µM [inhibitor, single point] | – |
| COc1ccc(NCc2nc3ccccc3n2CCOc2ccccc2C)cc1 | inactive | – |
| O=c1c2ccccc2nc(COc2ccccc2)n1/N=C/c1ccc(O)cc1O | inactive | – |
| COC(=O)c1ccc(NC(=O)c2cc[n+](Cc3ccccc3)cc2)cc1 | inactive | – |
| C=CCSc1nc2ccsc2c(=O)n1-c1ccccc1 | inconclusive: 11.2 µM [inhibitor, partial curve] | – |
| Cc1[nH]n(C(N)=S)c(=O)c1N=Nc1ccc2ccccc2c1 | inconclusive: 0.501 µM [inhibitor, full curve, poor fit] | – |
| O=C(CC1SC(=NCCc2ccccc2)N(/N=C/c2cccs2)C1=O)Nc1ccc(Cl)cc1 (centres undefined) | inconclusive: 28.2 µM [inhibitor, single point] | – |
| O=C(CC(=O)N/N=C\c1ccc(F)cc1)NCCc1ccccc1 | inconclusive: 28.2 µM [inhibitor, single point] | – |
| COc1ccc2nc(N/C(N)=N/C(=S)Nc3ccccc3)nc(C)c2c1 | inconclusive: 28.2 µM [inhibitor, single point] | – |
| COC(=O)/C(=N\Nc1ccccc1)Sc1nnc(-c2ccc(OC)cc2)n1C | inactive | – |
| Cc1cccc(C)c1NC(=O)COC(=O)c1ccc2[nH]c3c(c2c1)CCCC3 | inconclusive: 28.2 µM [inhibitor, single point] | – |
| CCOC(=O)/C=C/C(=O)Nc1nccs1 | inconclusive: 25.1 µM [inhibitor, single point] | – |
| COc1ccc2sc(NC(=O)CC(C)C)nc2c1 | inactive | – |
| CCOC(=O)CSc1nc(C)[nH]c1[N+](=O)[O-] | inconclusive: 10 µM [inhibitor, partial curve] | – |
| CC(C)c1ccc(/C=C2\NC(=S)N(Cc3cccnc3)C2=O)cc1 | inactive | – |
| COc1ccccc1NC(=S)NC(=O)CCc1ccccc1 | inconclusive: 22.4 µM [inhibitor, single point] | – |
| Cc1ccc(S(=O)(=O)N(Cc2ccc(Cl)cc2)c2ccccc2C(=O)NCc2cccnc2)cc1 | inconclusive: 17.8 µM [inhibitor, single point] | – |
| O=Nc1ccc(O)c2ncccc12 | inconclusive: 7.94 µM [inhibitor, partial curve] | – |
| CNCCCC1Sc2ccccc2Oc2ccccc21 (centres undefined) | inconclusive: 28.2 µM [inhibitor, single point] | – |
